From the supplement of paper PMC3334620
In all, about 33,000 sequences were measured (“E-score (-0.5 to 0.5)”: median about -0.021, highest 2% from about 0.32 on). This is one part of the list.

Target: T1, Zap1 (UniProt P47043)
T1 sequence: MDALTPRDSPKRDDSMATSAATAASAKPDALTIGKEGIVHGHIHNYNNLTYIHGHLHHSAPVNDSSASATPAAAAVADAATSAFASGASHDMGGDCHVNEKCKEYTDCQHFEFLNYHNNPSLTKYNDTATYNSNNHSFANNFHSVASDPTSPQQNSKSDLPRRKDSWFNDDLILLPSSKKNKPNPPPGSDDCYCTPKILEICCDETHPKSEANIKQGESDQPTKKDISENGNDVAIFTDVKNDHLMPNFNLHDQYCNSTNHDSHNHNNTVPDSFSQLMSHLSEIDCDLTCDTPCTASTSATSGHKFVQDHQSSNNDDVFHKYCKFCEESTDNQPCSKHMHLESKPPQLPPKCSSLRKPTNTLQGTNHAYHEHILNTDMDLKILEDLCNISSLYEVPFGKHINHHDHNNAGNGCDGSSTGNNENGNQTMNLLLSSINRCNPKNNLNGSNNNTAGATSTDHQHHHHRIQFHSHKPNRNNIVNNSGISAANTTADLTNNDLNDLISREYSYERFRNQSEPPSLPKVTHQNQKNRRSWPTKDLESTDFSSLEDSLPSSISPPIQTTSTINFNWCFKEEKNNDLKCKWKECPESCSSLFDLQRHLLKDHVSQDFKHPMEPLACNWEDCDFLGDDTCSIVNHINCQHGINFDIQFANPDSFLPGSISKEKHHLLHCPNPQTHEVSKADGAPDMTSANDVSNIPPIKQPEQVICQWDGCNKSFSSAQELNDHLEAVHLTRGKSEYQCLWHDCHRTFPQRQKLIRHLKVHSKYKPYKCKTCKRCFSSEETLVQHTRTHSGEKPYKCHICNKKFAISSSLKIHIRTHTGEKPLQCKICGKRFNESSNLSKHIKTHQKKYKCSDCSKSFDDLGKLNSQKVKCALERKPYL
Assay: PBM E-score (8-mer binding enrichment) (E-score (-0.5 to 0.5)); higher = stronger / more preferred TF binding; most listed sequences are background and not binding sites
Settings: protein concentration: 200 nM; construct: GST-full length
Procedure, shortened: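 Each ungapped eight-base word and its reverse complement, pooled, received an E-score from the Universal PBM Analysis Suite. Underlying scans, normalised with masliner, recorded fluorescent anti-GST bound to GST-tagged yeast transcription factors. These were applied at about 100-200 nM to universal all-10-mer Agilent arrays double-stranded by primer extension.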

Sequence	PBM E-score
CAGTTCAG	0.0166
AAGGCGAG	-0.0765
GTTGAAAA	0.235
CCGTCTAA	0.00658
CTGTAAGA	0.0201
ATAAACAT	-0.0337
GAATTGGC	-0.197
GTATGCAA	0.0515
CAATCCAC	-0.0351
TAAGCTGA	0.0318
ACCGTGTA	0.146
AACCGGTA	0.0841
TAACCTAA	0.399
CTCACCAC	-0.18
CTGAAGAA	-0.163
TCATATAA	0.195
GTACATCA	0.0732
TAAATTCA	-0.1
CCACCAGA	-0.00544
AGCTGCCT	-0.241
ATCGAATA	-0.122
GGGAGAGA	-0.251
CTCTAGAA	-0.0288
CCTTGGGC	0.0263
AGCTTTAG	-0.191

Sequence	PBM E-score
GGGCACAA	0.088
ACGGTCCG	-0.197
GTCGAAGA	-0.118
CGTAGACG	-0.328
CGACGTAC	-0.187
AACAACTC	0.00164
CGCCCTAC	-0.0875
GCGTGTAA	0.0353
ACTAATTG	0.153
CCCATTAG	-0.168
ATATGAGA	0.0525
GAACGTGC	-0.186
ACGTCGAG	-0.29
GAGAGTGC	-0.159
CGTGCAAA	0.0295
GGCAAACA	0.0667
CCAGATCC	-0.277
ACGAAGAG	0.0592
AGAGCTAA	-0.111
AAGGAGAA	0.0182
ATAGTTGA	0.0436
ATACTCTG	0.0448
CCGGATGC	-0.147
ACCCAACA	0.205
CTTGATTC	0.0208

Sequence	PBM E-score
ATCTAATC	-0.0733
ACAGAAGG	9e-05
CTTGAGTA	-0.113
CTAGTAAG	0.0764
ATTTATAA	0.201
ACGCTACT	-0.219
CAGGCAGC	-0.213
AGATCATC	-0.103
CGGCACAC	-0.0591
ACAGCCTG	-0.162
CATGATGG	-0.0569
GAAGCAGC	-0.157
AGGTAGCC	0.047
CATCGGCC	-0.311
CATATTGC	-0.169
AAGTAGTG	-0.00288
ATTGTTGA	0.057
ATAACACA	0.109
ATGCAAGC	-0.0865
GGTAGCAA	0.0702
AGTTAGAC	0.00548
ATAGATCA	0.129
AGTCAGAA	-0.0982
CTGGCAAC	-0.0929
TATCTAGA	0.151

Sequence	PBM E-score
ACGGCACA	-0.00775
AACGGACT	-0.166
ACATCCAA	-0.00617
GTCCTCCA	-0.0422
GTTTATTA	0.237
ATCGGAAG	-0.0371
TAATAGTA	0.193
CCTAGGAG	-0.132
GGGCGGAA	-0.0292
CCGATCAA	-0.1
GGATGAAC	-0.109
CCCTAAAA	0.163
GTCGGCCA	-0.156
ACCAAGCG	-0.158
CCAGACTA	-0.0968
CCCCCCAC	-0.446
TACATGTA	0.0387
CCAATTAG	0.199
ATGGGACC	0.101
AGTAACAC	-0.0485
CTCGGGAA	-0.102
CTAGCGCA	-0.194
CGCACAAG	-0.0488
CAGAGCTA	-0.157
AAAAGATT	-0.0178

Sequence	PBM E-score
CAATACAA	0.107
GGTGCCTA	-0.147
CACATTTC	0.111
CAGGGAGC	-0.35
GAGGAGAA	-0.256
CATAACTA	0.18
CTTAGCCA	-0.231
CGGGTACG	0.0198
CTCAGTGC	-0.189
ACCCCCCG	-0.132
ACTATTTC	0.0884
GACTAGTA	-0.224
GGCCAGCC	-0.142
CACTGTCG	-0.217
CGAAGGAC	-0.113
ACAAGCTC	-0.191
TTTGAAAA	0.273
ATTTATTA	0.104
AATTTGAG	0.149
ATCTCCAT	-0.102
GGACTGAC	-0.177
AATCAGAA	0.141
TGGACAAA	0.0761
CCACTGAC	-0.143
CCGTTTCG	-0.0885

Sequence	PBM E-score
CGCACCGA	-0.222
AATTCGAC	-0.00492
ACAGTTCG	-0.00655
CGTTGCAC	-0.0395
GATATCAC	0.0302
CTTGTGCA	0.0196
AGAGCGTA	-0.265
TACGATGA	0.0503
ACCCTACC	0.364
GCCTTAAC	0.133
CTCTGGGC	-0.235
CCTGTAGC	-0.202
AGGGGTAA	0.272
AACCGGGG	-0.00821
CGAGGCGC	-0.064
AACACCGG	0.168
AATGACGC	-0.0787
GACGCGCA	-0.141
CGACGCGC	0.0666
TATCATAA	0.14
CGAACCGC	0.083
AGTGAGCA	-0.0735
ATCGAGAG	-0.0136
CGAATTGA	-0.0748
GATTGCAC	0.0648

Sequence	PBM E-score
CTCCACCC	-0.0367
ACATATAG	-0.0478
AAGGAACT	-0.0364
TGTGAAAA	0.171
GATCAGGA	-0.145
GATAGATA	0.00177
AAGATGGT	0.0235
ACAGGACT	-0.104
ACGTAAAG	-0.0886
AGTATTGA	-0.0737
CCTCTGCG	-0.0894
AAACGACA	0.12
CGATTTTC	0.12
ACGCGTCG	-0.129
CGCGTGTA	-0.0358
CCTAGTCC	-0.128
TCTGTACA	0.0252
AGATCTGA	-0.0809
CTCAGCCC	-0.271
AAGGCGGG	-0.353
GTCGCTCA	-0.0832
ACGATGTG	0.0828
